Measurements from a collection of fitness landscapes (doi:10.1016/j.celrep.2020.107928).
Over roughly 81,000 sequences, “one-hybrid fitness for binding parS DNA” has its median near -0.17; the highest 2% begin near 0.51. This is one part of the list.

B1: Caulobacter ParB omega fusion; a variant is named by its letters at X, in order, B8GW30 (parent)
chain: MESVVVGEPGMSEGRRGLGRGLSALLGEVDAAPAQAPGEQLGGSREAPIEILQRNPDQPRRTFREEDLEDLSNSIREKGVLQPILVRPSPDTAGEYQIVAGERAWRAAQRAGLKTVPIMVRELDDLAVLEIGIIENVQRADLNVLEEALSYKVLMEKFERTQENIAQTIGKSXSHVANXMRLLXLPDEVQSYLVSGELTAXHARAIAAAADPVALAKQIIEGGLSVRETEALARKAPNLSAGKSKGGRPPRVKDTDTQALESDLSSVLGLDVSIDHRGSTGTLTITYATLEQLDDLCNRLTRGI

Variants of: B1
Test: one-hybrid fitness for binding parS DNA (scaled: cognate 1, non-cognate 0); higher = stronger binding
Conditions: with parS DNA site
Outline: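 On M9-minus-histidine containing 0.1 mM IPTG and 5 mM 3-AT, E. coli USO cells with a HIS3 reporter, site 19 bp from the promoter, grew 48 hours at 37°C to select Caulobacter ParB libraries randomised at four specificity codons. Plasmids from before and after were Illumina-sequenced, with three replicate libraries pooled and variants under 10 reads left out. Fitness is the log change in variant-to-wild-type read ratio, rescaled against cognate and non-cognate.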

one-hybrid fitness for binding parS DNA, 1.02:
RAFS

one-hybrid fitness for binding parS DNA, ≤ 0.2:
GNDP
NSPR
PSID
VLIM
CQRG
LEDE
SGMT
IHSS
YVWG
MWPG
GLRQ
MFDN
QPHH
PSSH
QSAR
ANSM
VNVL
HDRK
LTSK
WIAV
TETP
LQGR
GPFG
CCQT
TYIN
DYTT
PWAE
ERYA
HYKV
LYFV
QVPA
QKIV
WLRP
TCHW
AVVT
CMDS
SWLE
QSAS
SKHE
YQTL
WYDS
CMHR
LPLC
ETGT
VFMR
VWLR
ANIT
ASHF
GITV
CAVI
IAYC
QYQI
VLRV
SDLT
VGAE
PLPK
QIHV
KAFR
PMPQ
HVEG
VCTS
SDTD
TVHQ
PPDA
LDMD
SHRH
LRLV
PAIY
SCEV
IWEL
QHYA
CTRW
PTHR
LALL
GRET
NPNY
EQRL
WIER
GHEG
PYTE
LKTS
VSWE
YEGG
HTIL
ATRM
LGVV
ALCW
PVSH
HLVT
IEDS
LMDW
CLQI
VHNC
GVMA
LCTY
KRAI
QINT
QRLK
LQYH
CTCS
HRMN
KDYF
PCDT
AYES
YQND
SKFM
VSQH
QIFS
SREY
TEPN
QIRG
YAKR
PLPG
RQEI
SLFS
TLAE
MLMR
AMWT
SQGV
AWLK
VVGM
TMRW
TTRC
HVEC
SSEC
FGTR
YSMI
VYDV
SPEV
YLLR
QVRH
CCGG
TYAQ
NSRD
WVNT
AWDD
RAEV
VKAT
ISDS
CPPV
SYIC
QKEG
PLYG
CQTN
KCIG
RAIE
STFI
ECLL
PYTH
ARNY
SLIE

one-hybrid fitness for binding parS DNA, 0.711:
RRSG
